Experimental findings from the supplement of paper PMC4967469 are described below.

IC50 is the fitted dose that halves viability relative to control wells, and lower means more sensitive; where the fit passes the top or lowest dose, that dose stands as a limit. AUC sums up the same curve from the lowest dose to the 256-fold higher top dose: 1 means no effect, lower means more sensitive. An inferred top dose is not printed in the source and was worked back from the curve model. Drugs with an entry number were screened twice under separate entries, and the two screens often disagree. A value given as a limit tells only on which side of the number the result lay.

Compound in one test: NC(=O)[C@@H](CCC(F)(F)F)N(Cc1ccc(-c2ncon2)cc1F)S(=O)(=O)c1ccc(Cl)cc1 [BMS-708163]
The experiment in a line: Viability of human cancer cell lines after 72 h of drug (GDSC screen). To be noted: screen: GDSC drug entry 205; top dose inferred. Here is the method:
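Human cancer cell lines in 384-well plates, medium with 10% serum, drug for 72 h over a 256-fold dose range (nine 2-fold or five 4-fold steps up to the top dose). Adherent lines were fixed and stained with the nucleic acid dye Syto60, suspension lines read with resazurin; signal relative to control wells, capped at 0 and 100%. One two-parameter sigmoid per drug and line, fitted in a mixed model over all curves with the slope shared within a line.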
The IC50 is the concentration needed to halve the response being measured. Consider “NCI-H2405 (lung adenocarcinoma, adherent, top dose 10.24 µM)”, for which the AUC was found to be 0.985 and the half-maximal inhibitory concentration (IC50) was over 10.2 µM.
On the same counts, the results for “NCI-H2444 (non-small cell lung carcinoma, adherent, top dose 10.24 µM)” are 0.988 and over 10.2 µM.
In the same order, the values of “NCI-H2452 (mesothelioma, adherent, top dose 10.24 µM)” are 0.984 and over 10.2 µM.
In the same order, the values of “NCI-H3122 (lung adenocarcinoma, adherent, top dose 10.24 µM)” are 0.987 and over 10.2 µM.
With “NCI-SNU-1 (stomach, suspension, top dose 10.24 µM)”, the AUC was 0.982 and the half-inhibitory concentration (IC50) is over 10.2 µM.
Consider “NCI-SNU-5 (stomach, suspension, top dose 10.24 µM)”, for which the AUC turned out to be 0.989 and the IC50 was over 10.2 µM.
In the same order, the values of “NCI-SNU-16 (stomach, suspension, top dose 10.24 µM)” are 0.991 and over 10.2 µM.
In the same order, the values of “NEC8 (testis, adherent, top dose 10.24 µM)” are 0.991 and over 10.2 µM.
In the same order, the values of “NH-12 (neuroblastoma, adherent, top dose 10.24 µM)” are 0.985 and over 10.2 µM.
In the case of “NKM-1 (acute myeloid leukaemia, suspension, top dose 10.24 µM)”, the AUC was found to be 0.984 and the IC50 is over 10.2 µM.
In the same order, the values of “NMC-G1 (glioma, adherent, top dose 10.24 µM)” are 0.898 and over 10.2 µM.
On the same counts, the results for “NOMO-1 (acute myeloid leukaemia, suspension, top dose 10.24 µM)” are 0.982 and over 10.2 µM.
In the same order, the values of “NOS-1 (osteosarcoma, adherent, top dose 10.24 µM)” are 0.964 and over 10.2 µM.
Regarding “NTERA-2 cl.D1 (testis, adherent, top dose 10.24 µM)”, the AUC was 0.985 and the IC50 was over 10.2 µM.
In the same order, the values of “NU-DUL-1 (B-cell lymphoma, suspension, top dose 10.24 µM)” are 0.988 and over 10.2 µM.
In the same order, the values of “NUGC-3 (stomach, adherent, top dose 10.24 µM)” are 0.979 and over 10.2 µM.
In the case of “NUGC-4 (stomach, adherent, top dose 10.24 µM)”, the AUC came to 0.984 and the IC50 was over 10.2 µM.
In the same order, the values of “NY (osteosarcoma, adherent, top dose 10.24 µM)” are 0.983 and over 10.2 µM.
In the same order, the values of “OACM5-1 (oesophagus, semi-adherent, top dose 10.24 µM)” are 0.986 and over 10.2 µM.
On to “OACp4C (oesophagus, adherent, top dose 10.24 µM)”, for which the AUC turned out to be 0.98 and the 50% inhibitory concentration (IC50) is over 10.2 µM.
For the cell line “OAW-28 (ovary, adherent, top dose 10.24 µM)”, the AUC turned out to be 0.968 and the 50% inhibitory concentration (IC50) was over 10.2 µM.
In the same order, the values of “OAW-42 (ovary, adherent, top dose 10.24 µM)” are 0.986 and over 10.2 µM.
With “OC-314 (ovary, adherent, top dose 10.24 µM)”, the AUC came out at 0.99 and the IC50 was over 10.2 µM.
In the same order, the values of “OCI-AML2 (acute myeloid leukaemia, suspension, top dose 10.24 µM)” are 0.995 and over 10.2 µM.
On the same counts, the results for “OCI-AML3 (acute myeloid leukaemia, suspension, top dose 10.24 µM)” are 0.978 and over 10.2 µM.
As to “OCI-AML5 (acute myeloid leukaemia, suspension, top dose 10.24 µM)”, the AUC was determined as 0.988 and the 50% inhibitory concentration (IC50) is over 10.2 µM.
“OCI-LY-19 (B-cell lymphoma, suspension, top dose 10.24 µM)”: the AUC was found to be 0.969 and the concentration for half-maximal inhibition (IC50) is over 10.2 µM.
On the same counts, the results for “OCI-M1 (acute myeloid leukaemia, suspension, top dose 10.24 µM)” are 0.989 and over 10.2 µM.
“OCUB-M (breast, adherent, top dose 10.24 µM)”: the AUC worked out at 0.971 and the 50% inhibitory concentration (IC50) is over 10.2 µM.
On the same counts, the results for “OCUM-1 (stomach, adherent, top dose 10.24 µM)” are 0.986 and over 10.2 µM.
In the same order, the values of “OE19 (oesophagus, adherent, top dose 10.24 µM)” are 0.986 and over 10.2 µM.
Regarding “OE21 (oesophagus, adherent, top dose 10.24 µM)”, the AUC came out at 0.972 and the IC50 was over 10.2 µM.
On to “OE33 (oesophagus, adherent, top dose 10.24 µM)”, for which the AUC came out at 0.968 and the concentration for half-maximal inhibition (IC50) was over 10.2 µM.
For “OMC-1 (cervix, adherent, top dose 10.24 µM)”, the AUC is 0.987 and the 50% inhibitory concentration (IC50) is over 10.2 µM.
In the same order, the values of “ONS-76 (medulloblastoma, adherent, top dose 10.24 µM)” are 0.984 and over 10.2 µM.
On the same counts, the results for “OPM-2 (myeloma, suspension, top dose 10.24 µM)” are 0.991 and over 10.2 µM.
In the same order, the values of “OS-RC-2 (kidney, adherent, top dose 10.24 µM)” are 0.978 and over 10.2 µM.
Regarding “OSC-19 (head and neck, adherent, top dose 10.24 µM)”, the AUC worked out at 0.986 and the 50% inhibitory concentration (IC50) is over 10.2 µM.
Turning to “OSC-20 (head and neck, adherent, top dose 10.24 µM)”, the AUC amounted to 0.978 and the half-maximal inhibitory concentration (IC50) is over 10.2 µM.
As for “OV-7 (ovary, adherent, top dose 10.24 µM)”, the AUC stood at 0.973 and the IC50 was over 10.2 µM.
In the same order, the values of “OV-17R (ovary, adherent, top dose 10.24 µM)” are 0.981 and over 10.2 µM.

Staying with this test, now noted: top dose 5 µM; screen: GDSC drug entry 1072; top dose inferred.
With NCI-N87 (stomach, adherent), the AUC was determined as 0.979 and the 50% inhibitory concentration (IC50) was over 5 µM.
On the same counts, the results for OACM5-1 (oesophagus, semi-adherent) are 0.984 and over 5 µM.
In the case of OACp4C (oesophagus, adherent), the AUC was determined as 0.973 and the half-inhibitory concentration (IC50) was over 5 µM.
On the same counts, the results for OC-314 (ovary, adherent) are 0.983 and over 5 µM.
Consider OCI-LY7 (B-cell lymphoma, suspension), for which the AUC was determined as 0.989 and the IC50 is over 5 µM.
On the same counts, the results for OCUM-1 (stomach, adherent) are 0.955 and over 5 µM.
With OV-7 (ovary, adherent), the AUC is 0.972 and the IC50 is over 5 µM.
For the cell line OV-17R (ovary, adherent), the AUC was 0.977 and the 50% inhibitory concentration (IC50) is over 5 µM.
On the same counts, the results for OV-56 (ovary, adherent) are 0.98 and over 5 µM.
